Among all 110,000 compounds or so, about 230 (0.21%) showed an effect of 50% or more. The list shows a part of the results.
What follows are molecules tested against DPAP1 (Plasmodium falciparum, UniProt Q8IIJ9) (assay: primary screen, percent inhibition; read by cleavage of a fluorogenic dipeptide substrate; higher = more effect of the substance).
Design: species or system P. falciparum D10 trophozoite lysates; single well
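Note: 30 min substrate incubation versus DMSO and 10 µM JCP410 controls.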

DPAP1, sequence (Q8IIJ9 whole entry, looked up): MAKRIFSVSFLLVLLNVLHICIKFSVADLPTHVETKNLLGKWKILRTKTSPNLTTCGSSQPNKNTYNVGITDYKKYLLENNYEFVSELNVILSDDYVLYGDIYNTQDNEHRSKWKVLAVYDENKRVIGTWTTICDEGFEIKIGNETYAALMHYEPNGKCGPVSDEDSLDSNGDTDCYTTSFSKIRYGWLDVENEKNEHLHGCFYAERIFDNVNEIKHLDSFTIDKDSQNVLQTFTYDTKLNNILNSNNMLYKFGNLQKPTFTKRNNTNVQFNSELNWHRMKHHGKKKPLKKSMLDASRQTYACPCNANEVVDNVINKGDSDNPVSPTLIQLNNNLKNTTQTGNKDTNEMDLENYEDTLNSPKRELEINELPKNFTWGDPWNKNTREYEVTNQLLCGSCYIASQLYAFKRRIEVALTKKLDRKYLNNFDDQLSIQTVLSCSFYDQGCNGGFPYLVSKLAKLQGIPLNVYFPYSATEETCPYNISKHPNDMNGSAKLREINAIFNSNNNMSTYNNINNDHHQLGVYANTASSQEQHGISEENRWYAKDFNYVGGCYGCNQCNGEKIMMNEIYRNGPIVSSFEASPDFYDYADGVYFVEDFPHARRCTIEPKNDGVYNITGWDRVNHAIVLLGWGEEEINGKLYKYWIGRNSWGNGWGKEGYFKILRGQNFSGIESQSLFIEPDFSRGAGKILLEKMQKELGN

Compared with CC(C)C[C@H](NC(=O)OCc1ccc2c(c1)OCO2)C(=O)NCC#N, Cc1ccc(Cn2c(C)c(CNCc3ccc4c(c3)OCO4)c(C(=O)O)c2C)cc1 is lower in “% Inhibition @ 10 uM” value: 3.19% for the first, 1.41% for the second.

Compared with CN(C)S(=O)(=O)c1cccc(N)c1, O=C(O)CS(=O)(=O)c1ccc2ccccc2c1 is higher in “% Inhibition @ 10 uM” value: -1.5% for the first, -0.216% for the second.

Going from COc1ccccc1/C=C1\S/C(=N/c2cccc(C(=O)O)c2)N(C)C1=O to CN1C(=O)S/C(=C\c2cn(Cc3ccccc3F)c3ccccc23)C1=O, the “% Inhibition @ 10 uM” value falls from 8.72% to -1.26%.

First: N=C1/C(=C\c2ccc(SCc3ccco3)o2)C(=O)N=C2SC(COc3ccccc3)=NN12
Second: N=C1/C(=C\c2ccc(Br)cc2)C(=O)N=C2SC(N3CCOCC3)=NN12
The “% Inhibition @ 10 uM” value of the first is higher: 1.93% for the first, -3.44% for the second.

Compared with CCOc1ccc(-c2cc(NC(=O)NCc3noc4ccccc34)on2)cc1, COc1cc(OC)cc(C(=O)Nc2nc(-c3ccc(Br)cc3)cs2)c1 is lower in “% Inhibition @ 10 uM” value: 3.51% for the first, -3.02% for the second.

First: CCCCn1c(NCc2ccncc2)nc2ccccc21
Second: CCC(=O)NCCCc1nc2ccccc2n1Cc1ccc(Cl)cc1
The “% Inhibition @ 10 uM” value of the first is lower: 0.843% for the first, 2.73% for the second.

Going from COc1cc(OC)c(-c2nnc3n(Cc4ccccc4Cl)c(=O)c4ccccc4n23)cc1OC to COc1ccccc1Nc1cc(C)nc2ccccc12, the “% Inhibition @ 10 uM” value falls from -3.51% to -8.33%.

Going from O=C(CSc1nc(O)c2c3c(sc2n1)CCCC3)NCCCN1CCOCC1 to O=C(c1ccccc1)c1ccc2nc(NCCCN3CCOCC3)c3nncn3c2c1, the “% Inhibition @ 10 uM” value rises from 1.39% to 9.5%.

First: CCOC(=O)c1c(C)[nH]c(C)c1S(=O)(=O)NCCc1ccc(C)cc1
Second: CCOC(=O)c1c(C)[nH]c(C)c1S(=O)(=O)NC(C)CC (centres unmarked)
The “% Inhibition @ 10 uM” value of the first is lower: 1.23% for the first, 5.39% for the second.

Compared with Cc1ccccc1CNC(=O)CCc1cn(C)c2ccccc12, Cc1ccccc1C(=O)N(Cc1ccccc1)C(C)C is higher in “% Inhibition @ 10 uM” value: 2.49% for the first, 5.43% for the second.

Compared with CCOC(=O)N1CCN(Cc2nc3c(c(=O)[nH]c(=O)n3C)n2C(C)C(C)=O)CC1 (centres unmarked), CCOC(=O)N1CCN(CC(O)COc2cc(C)ccc2C)CC1 (centres unmarked) is higher in “% Inhibition @ 10 uM” value: -6.52% for the first, -5.35% for the second.

Compared with CCN(CC)c1ccc(NC(=O)c2ccc3c(c2)OCO3)cc1, O=C(c1cccs1)N1CCN(Cc2ccc3c(c2)OCO3)CC1 is higher in “% Inhibition @ 10 uM” value: 0.163% for the first, 1.57% for the second.

Going from CCc1nnc(SCC(=O)N(C)C2CCCCC2)c2cc3sccc3n12 to CCC1CCCCN1CCCNC(=O)c1ccc2c(c1)c(C)c(C)n2C (centres unmarked), the “% Inhibition @ 10 uM” value falls from -1.38% to -3.39%.

Going from Cc1ccc2nc(O)c3cc(C(=O)N4CCOCC4)sc3c2c1 to CCc1ccc2nc(N3CCC(C(=O)NCc4cccs4)CC3)sc2c1, the “% Inhibition @ 10 uM” value falls from 4.22% to 1.07%.

First: CCOC(=O)c1c(N)sc2c1CCC(CC)C2 (centres unmarked)
Second: CCCC1CCc2c(sc(NC(=O)CCCC(=O)O)c2C(N)=O)C1 (centres unmarked)
The “% Inhibition @ 10 uM” value of the first is higher: 16.6% for the first, 0.687% for the second.

First: Cc1sc2c(c1C)c(=O)n(CCc1ccccc1)c(=O)n2CC(=O)NCc1ccco1
Second: Cc1cccn2c(=O)c(/C=C(\C#N)C(=O)NCc3ccco3)c(Oc3ccccc3Cl)nc12
The “% Inhibition @ 10 uM” value of the first is higher: 6.32% for the first, 0.315% for the second.

First: O=C1S/C(=C\c2ccccc2)C(=O)N1Cc1ccc(F)cc1
Second: O=C(CCS(=O)(=O)Cc1ccccc1F)NCc1ccc(F)cc1
The “% Inhibition @ 10 uM” value of the first is lower: -6.57% for the first, -1.21% for the second.

Going from COc1cccc(CN2CCN(Cc3ccc(C(F)(F)F)cc3)CC2)c1 to Fc1ccc(CN2CCN(Cc3ccccc3)CC2)c(F)c1, the “% Inhibition @ 10 uM” value rises from -3.13% to 3.1%.

Going from O=C(O)c1ccc(CNC(=O)C2CCC2)cc1 to O=C(NCc1ccco1)C1C2/C=C\CCCCC21 (centres unmarked), the “% Inhibition @ 10 uM” value falls from -1.11% to -3.01%.

Going from Cc1cc(C)c(C(=O)Nc2ccc3[nH]c(O)nc3c2)c(C)c1 to Cc1cc(C)c(NC(=O)CSc2nc(C)cc(O)n2)c(C)c1, the “% Inhibition @ 10 uM” value rises from -3.74% to 4.83%.

Going from CC(NC(=O)CN1CCN(Cc2ccc(Cl)cc2)C1=O)c1ccccc1 (centres unmarked) to COCCN1C(=O)c2ccccc2C(C(=O)Nc2ccc(Cl)cn2)C1c1cccs1 (centres unmarked), the “% Inhibition @ 10 uM” value rises from -0.984% to 4.33%.

Compared with COc1ccccc1-c1nnc2sc(-c3ccc4c(c3)OCCO4)nn12, COc1ccc(C(=O)N2CCN(Cc3ccccc3F)CC2)cc1OC is lower in “% Inhibition @ 10 uM” value: 2.68% for the first, -11.9% for the second.

First: O=C(/C=C/c1cn(CC(O)CN2CCCCC2)c2ccccc12)c1ccccc1 (centres unmarked)
Second: Oc1cc(-c2ccccc2)c2ccccc2n1
The “% Inhibition @ 10 uM” value of the first is lower: -1.74% for the first, -1.06% for the second.

Compared with O=C(C1=C(O)C(=O)N(CCc2c[nH]c3ccccc23)C1c1cccnc1)c1ccc(Cl)cc1 (centres unmarked), COc1ccc(C(=O)N2CCN(Cc3c[nH]c4ccccc34)CC2)cc1OC is higher in “% Inhibition @ 10 uM” value: -7.77% for the first, -3.4% for the second.

Going from O=C(Nc1ccccc1C(=O)Nc1ccccc1)c1ccc(-c2ccccc2)cc1 to O=C(Nc1ccccc1C(=O)O)c1ccc(C(=O)Nc2ccccc2C(=O)O)cc1, the “% Inhibition @ 10 uM” value falls from 1.13% to -1.91%.

Going from COc1ccc(C(C)C)cc1S(=O)(=O)N1CCN(C)CC1 to CCCSc1cc(N2CCN(C)CC2)nc(-c2ccc(OC)cc2)n1, the “% Inhibition @ 10 uM” value rises from -0.123% to 2.27%.

Going from CC1CN(C(=O)Nc2ccccc2)/C(=N/Cc2ccccc2)S1 (centres unmarked) to CC1=NN(c2ccccc2)C(=O)C1C(=O)c1ccccc1Br (centres unmarked), the “% Inhibition @ 10 uM” value rises from -5.95% to 2.55%.

Compared with Cc1nn(-c2ccc(F)cc2)c(O)c1/C=N/c1cccc(Br)c1, Cc1nc2ccccc2n1CCc1nc2c3ccccc3nc(NCc3ccc(F)cc3)n2n1 is lower in “% Inhibition @ 10 uM” value: -2.16% for the first, -2.42% for the second.

First: COCC(C)NC1CCCCC1OC (centres unmarked)
Second: CCOC(=O)c1cc(S(=O)(=O)NC2CCCCCC2)cn1C
The “% Inhibition @ 10 uM” value of the first is higher: 4.38% for the first, -1.06% for the second.

Compared with CCOc1cc(C2C(C#N)=C(N)Oc3[nH]nc(C)c32)ccc1O (centres unmarked), Cc1ccc(C2C(C#N)=C(N)Oc3ccc4ccc(O)cc4c32)cc1 (centres unmarked) is lower in “% Inhibition @ 10 uM” value: 5.24% for the first, 3.46% for the second.

Compared with C#CCN1C(=O)S/C(=C/c2ccc(OC)cc2C)C1=O, COc1ccc(/C=c2\sc3nc(=O)c(Cc4ccc(Cl)cc4)nn3c2=O)cc1 is higher in “% Inhibition @ 10 uM” value: -5.34% for the first, 3.93% for the second.

First: Cc1nc(SCC2=C(C(=O)OC(C)C)C(c3ccccc3)C(C#N)=C(N)O2)c(C#N)c(C)c1C (centres unmarked)
Second: CCN(CC)C(=O)c1sc(NC(=O)C2CC2c2ccccc2)c(C#N)c1C (centres unmarked)
The “% Inhibition @ 10 uM” value of the first is higher: 7.98% for the first, -0.941% for the second.

Compared with COc1ccccc1C(O)c1nc2ccccc2n1C(C)C (centres unmarked), Cc1ccc(NC(=O)C(C)Oc2ccccc2C)c(C)c1 (centres unmarked) is higher in “% Inhibition @ 10 uM” value: 1.72% for the first, 6.79% for the second.

Compared with COc1ccc(Br)cc1/C=C/C(=O)c1cccs1, COc1cc2sc(NC(=O)c3cccc(C)c3OC)nc2cc1Cl is higher in “% Inhibition @ 10 uM” value: -1.32% for the first, -0.403% for the second.

Compared with COC(=O)c1ccc(C2c3c(oc4cc(C)c(C)cc4c3=O)C(=O)N2CCCN2CCOCC2)cc1 (centres unmarked), Cc1c2cnn(CC(=O)N3CC(C)CC(C)C3)c(=O)c2c(C)n1Cc1ccccc1 (centres unmarked) is higher in “% Inhibition @ 10 uM” value: -1.11% for the first, -0.447% for the second.

First: Cc1nn(CC(=O)N(C)Cc2ccccc2)c(=O)c2nn(-c3ccccc3)c(C)c12
Second: CCC(=O)N1c2ccccc2N=C2CC(c3ccccc3)CC(O)=C2C1c1ccco1 (centres unmarked)
The “% Inhibition @ 10 uM” value of the first is higher: 2.48% for the first, -0.988% for the second.

Going from Nc1c(C(=O)Nc2ccccc2C(F)(F)F)sc2nc3c(cc12)CCC3 to CC(=O)c1ccc(NC(=O)c2cc3nc4c(c(C(F)(F)F)n3n2)CCCC4)cc1, the “% Inhibition @ 10 uM” value rises from -6.2% to -3.26%.

First: C1=C(N2CCCCC2)Cc2ccccc21
Second: O=C(CN1CCCCC1)Nc1nc(-c2ccc(Br)cc2)cs1
The “% Inhibition @ 10 uM” value of the first is lower: -0.988% for the first, -0.687% for the second.

First: CN1CCC(NCCc2cccc(F)c2)CC1
Second: CCCCN(CCCNC(=O)C1CCN(S(=O)(=O)N2CCOCC2)CC1)Cc1ccccc1
The “% Inhibition @ 10 uM” value of the first is lower: -5.11% for the first, 2.35% for the second.

First: OC1c2ccccc2CCc2sccc21 (centres unmarked)
Second: CC(=O)c1c(O)c2cccc3c2n(c1=O)CCC3
The “% Inhibition @ 10 uM” value of the first is higher: -2.87% for the first, -5.35% for the second.

Going from CCOc1ccc(N2C(=O)CC(N3CCCCC3CC)C2=O)cc1 (centres unmarked) to CC1CCCCN1C(=O)Cn1ncc2c3ccccc3nc-2c1O (centres unmarked), the “% Inhibition @ 10 uM” value rises from -1.74% to 2.59%.

First: Cc1cccc(OCc2nc(C#N)c(NCCc3ccccc3)o2)c1
Second: COc1cc2nc(S)nc(NCc3ccccc3)c2cc1OC
The “% Inhibition @ 10 uM” value of the first is higher: -1.98% for the first, -2.83% for the second.

Going from COc1ccc(S(=O)(=O)N(CC(=O)N2CCCCC2)c2ccc(Cl)cc2)cc1 to C=CCNC(=O)CN(c1cc(Cl)ccc1C)S(=O)(=O)c1ccc(C)cc1, the “% Inhibition @ 10 uM” value falls from -0.473% to -5.19%.

Compared with COc1cc(C)c(CNc2cc(C)cc(C)c2)cc1C, CC(C)=C1C2C=CC1C1C(=O)N(c3cc(C)ccc3C)C(=O)C21 (centres unmarked) is higher in “% Inhibition @ 10 uM” value: -8.04% for the first, -1.44% for the second.

Going from COCc1cc(C)nc2sc(C(=O)N3CCN(C)CC3)c(N)c12 to CC1CC(C)CN(C(=O)c2cn(C3CCCC3)c(=O)c3c2c2ccccc2n3C)C1 (centres unmarked), the “% Inhibition @ 10 uM” value falls from 6.49% to 1.85%.

Compared with Cc1ccc2[nH]c(C)c(CCC(N)=O)c2c1, O=c1[nH]c2ccccc2c(=O)n1CCSc1ccccn1 is lower in “% Inhibition @ 10 uM” value: -2.51% for the first, -2.8% for the second.

Going from COc1cc(C=C2C(=O)NC(=O)NC2=O)cc(OC)c1O to CCN(Cc1ccc(OC)cc1)S(=O)(=O)c1nnc(NC(=O)C(C)C)s1, the “% Inhibition @ 10 uM” value falls from 5.91% to -2.87%.

First: CC1(C)CC(=O)C2=C(C1)OC(N)=C(C#N)C2c1ccoc1 (centres unmarked)
Second: O=C1OC(C2CCCCC2)=N/C1=C\c1ccc2c(c1)OCO2
The “% Inhibition @ 10 uM” value of the first is higher: -0.591% for the first, -1.82% for the second.

First: O=C(O)CCCCCN1C(=O)C2CC=CCC2C1=O (centres unmarked)
Second: CCC(CC)C(=O)Nc1cccc(NC(=O)C(CC)CC)n1
The “% Inhibition @ 10 uM” value of the first is higher: -2.8% for the first, -3.26% for the second.

First: N#C/C(=C\c1ccc([N+](=O)[O-])o1)c1nc(-c2ccc(-c3ccccc3)cc2)cs1
Second: CC(=O)N/C(=N\OCc1ccc(Br)cc1)c1nonc1NC(C)=O
The “% Inhibition @ 10 uM” value of the first is higher: -0.693% for the first, -1.47% for the second.

With Cc1cc(Cl)cc(C)c1OCCOCCN1CCNCC1 the “% Inhibition @ 10 uM” value was 2.95%.

Source: article PMC6919601, “Identification of Plasmodium dipeptidyl aminopeptidase allosteric inhibitors by high throughput screening” (PLoS ONE, 2019)
